# In all, about 350,000 compounds went through this assay and about 9,900 (2.8%) were called active. Inconclusive means that the source gave no clear call. Such entries were picked first, then a sample of the others. The call rests on the fitted dose curve; in most records, active means well fitted activation curve with a large enough effect; inconclusive means small, poorly fitted or top-dose-only effect; inactive means no such curve, though single readings can be large or run the other way. No potency is given beside an inconclusive call; the fits are too rough.
# Experiment: A quantitative high throughput screen for small molecules that induce DNA re-replication in MCF 10a normal breast cells. Further: nearly all actives have a fitted effect of over 50% in size. On activity, positive = re-replication: % of control where 0% means no effect.
# Settings: MCF 10A DNA re-replication, Hoechst nuclear intensity, 48 h; activity, positive = re-replication: at 46.1 µM (top of the series)
# Potency means the concentration at half of the fitted maximal effect; tags describe the fitted curve by direction and shape.
Compound,Potency,"activity, positive = re-replication"
O=c1[nH]c(CSc2nnnn2-c2ccccc2)nc2ccccc12,"inconclusive [activator, single point]",
CN(CC(=O)Nc1ccccc1Cl)C(=O)COC(=O)CN1C(=O)NC2(CCCC2)C1=O,"inconclusive [activator, partial curve, poor fit]",
COc1nccnc1NS(=O)(=O)c1ccc(N=Cc2c(C)[nH]n(-c3ccccc3)c2=O)cc1,,inactive: 12%
N=c1c2c(ncn1Cc1ccco1)Oc1ccc3ccccc3c1C2c1ccccc1 (configuration not stated),active: 16.4 µM,
Nc1cccc2c3c(oc12)CCCC3,,inactive: 6.84%
COc1cc(OC)cc(-c2ncc3ccccn23)c1,"inconclusive [activator, single point]",
Cc1cccc(C(=O)N2CCC(=O)N(C(COCc3ccc(Cl)cc3)Cc3ccccc3)CC2)c1 (configuration not stated),"inconclusive [activator, single point]",
COc1cc(/C=C2\SC(=N)N(c3ccc(F)cc3)C2=O)ccc1O,active: 18.4 µM,
COC(=O)C1C(=O)c2c([nH]c(C(=O)OC3CCCCCC3)c2C)CC1C (configuration not stated),"inconclusive [activator, partial curve, poor fit]",
COCCc1ncc(CN2CCCC(C(=O)Nc3cccc(-c4cccc(C)c4)c3)C2)cn1 (configuration not stated),,inactive: 9.7%
Fc1cccc(NC(=S)NC2CCCCCCC2)c1,"inconclusive [activator, partial curve, poor fit]",
C=CCOc1ccc2nc(NC(=O)OC)[nH]c2c1,active: 1.46 µM,
Cc1ccc(C(=O)COC(=O)CCN2C(=O)C3C4CCC(C4)C3C2=O)cc1C (configuration not stated),"inconclusive [activator, single point]",
CCOC(=O)Cn1nnnc1CN(Cc1ccccc1)Cc1cc2cc(CC)ccc2[nH]c1=O,active: 10.3 µM,
CCC(C)(C)NC(=O)CN(C(=O)CCC(=O)Nc1cc(C)ccn1)c1ccc2c(c1)OCO2,"inconclusive [activator, partial curve, poor fit]",
FC(F)(F)c1cccc(N2CCN(CC3CC=CCC3)CC2)c1 (configuration not stated),"inconclusive [activator, single point]",
Cc1cccc(N2CCN(C(=O)C3CCCN(S(=O)(=O)c4cnc[nH]4)C3)CC2C)c1 (configuration not stated),"inconclusive [activator, partial curve, poor fit]",
COc1ccc(-n2c(NCCN(C)C)nc3sc4c(c3c2=O)CCCCC4)cc1,"inconclusive [activator, partial curve, poor fit]",
CCOC(=O)C1(Cc2ccccc2)CCN(Cc2ccc3cc(NC(C)=O)ccc3n2)CC1,"inconclusive [activator, single point]",
CCOC(=O)C1(Cc2cccc(OC)c2)CCN(Cc2ccccc2OC)CC1,,inactive: 5.91%
COc1ccc(C(=O)NCCCn2nc(C)cc2C)cc1S(=O)(=O)N1CCOCC1,"inconclusive [activator, partial curve, poor fit]",
Cc1cc(NC(=O)/C=C/c2ccc(F)cc2)n(-c2nc3ccccc3[nH]2)n1,"inconclusive [activator, full curve]",
O=C(CSc1nc2ccc([N+](=O)[O-])cc2[nH]1)NC1CCCCCC1,"inconclusive [activator, single point]",

Compound,Potency,"activity, positive = re-replication"
COc1cccc(NC(=O)c2ccc(NCCCN3CC(C)CC(C)C3)c([N+](=O)[O-])c2)c1 (configuration not stated),,inactive: -10.4%
NC(=O)c1cc(-c2ccccc2)nc(N2CCCCCC2)n1,"inconclusive [activator, single point]",
Cc1cccc(N2CC(C)Cn3c2nc2c3c(=O)n(CC(=O)OCc3ccccc3)c(=O)n2C)c1 (configuration not stated),"inconclusive [activator, partial curve, poor fit]",
O=C(c1ccco1)N1CCN(c2nc(-c3ccc(F)cc3)cs2)CC1,"inconclusive [activator, single point]",
COc1ccc(OC)c(-c2nnc(NC(=O)C(C)Sc3nncn3C)s2)c1 (configuration not stated),,inactive: -3.82%
CN1C(=O)[C@H]2[C@@H](/C=C/c3ccccc3)N3C(=O)CN(Cc4ccccn4)C(=O)[C@@]3(C)[C@H]2C1=O,"inconclusive [activator, single point]",
CCCCCCc1cc2cc(S(=O)(=O)c3ccc(Cl)cc3)c(=O)oc2cc1O,"inconclusive [activator, full curve, poor fit]",
O=C(CO/N=C/c1ccccc1OC(F)F)NC1CCCCC1,"inconclusive [activator, single point]",
O=C(NCCc1ccccc1)C1CCCN1S(=O)(=O)c1ccc(F)cc1 (configuration not stated),"inconclusive [activator, single point]",
Cc1cc(C(=O)N/N=C\C(Br)=C\c2ccccc2)c(C)o1,"inconclusive [activator, single point]",
COc1ccc(CCNC(=O)c2cc3c(=O)n4ccccc4nc3n(C3CCCCC3)c2=N)cc1,"inconclusive [activator, partial curve, poor fit]",
CC(C)CCNc1nc2ccccc2nc1NS(=O)(=O)c1cccs1,"inconclusive [activator, single point]",
OCCCN=C1CCCc2c1[nH]c1ccc(Cl)cc21,"inconclusive [activator, single point]",
CCOC(=O)C1=CNS(=O)(=O)NC1CCc1ccccc1 (configuration not stated),"inconclusive [activator, partial curve, poor fit]",
CN(C)c1ccnc2sc(C(=O)c3ccccc3)c(N)c12,"inconclusive [activator, single point]",
CCCCC(=O)NC(c1ccc(Cl)cc1)c1ccc2cccnc2c1O (configuration not stated),active: 11.6 µM,
COc1ccc(/C=C/C(=O)NC(C)CCc2ccccc2)cc1 (configuration not stated),"inconclusive [activator, partial curve, poor fit]",
COc1ccccc1NC(=O)/C(=C/c1cccs1)NC(=O)c1ccco1,,inactive: 2.34%
CCc1ccc(C(O)(CNCc2ccccc2)c2ccccc2)cc1 (configuration not stated),"inconclusive [activator, single point]",
COc1ccc(Cl)cc1NC(=O)CN(C)CC(=O)Nc1ccccc1N1CCOCC1,"inconclusive [activator, full curve, poor fit]",
CC1CCCCC1NC(=O)CN1C(=O)c2cccc(N)c2C1=O (configuration not stated),"inconclusive [activator, single point]",
CCCN(C(=O)c1cccc(-n2cccc2)c1)c1c(N)n(Cc2ccccc2)c(=O)[nH]c1=O,"inconclusive [activator, full curve, poor fit]",
CC(=O)c1cccc(-c2ccc3c(=O)[nH]c(Nc4ccccc4)cc3c2)c1,"inconclusive [activator, partial curve]",

Compound,Potency,"activity, positive = re-replication"
O=C(Nc1cccc(OC(F)(F)F)c1)c1ccc(Br)o1,"inconclusive [activator, single point]",
O=C(NCCC(=O)N1CCC2(CC1)NCCc1[nH]cnc12)c1ccc(F)c(F)c1,,inactive: 7.52%
CCC(c1nnnn1C(C)(C)CC)N(CCCN1CCOCC1)Cc1cc2cccc(C)c2[nH]c1=O (configuration not stated),"inconclusive [activator, single point]",
Cc1ccc(N(CC(=O)NCC2CCCO2)C(=O)CCC(=O)Nc2cc(C)on2)cc1 (configuration not stated),,inactive: -5.71%
COC(=O)CNC(c1ccccc1)c1cc(Cl)ccc1NC(=O)c1cccc(Cl)c1 (configuration not stated),"inconclusive [activator, partial curve, poor fit]",
C=CCn1c2ccccc2c(=O)c2cc(C#Cc3cc(OC)cc(OC)c3)ccc21,,inconclusive: 36% [activator]
Cc1cc(C)c(S(=O)(=O)/N=C2/C=C(Sc3ncn[nH]3)C(=O)c3ccccc32)cc1C,active: 2.31 µM,
CC1=CC(C)(C)Nc2ccc(OC(=O)c3ccco3)cc21,active: 4.11 µM,
CC(C)CC(=O)N1CCN(c2ccc([N+](=O)[O-])c(NCc3ccccc3)c2)CC1,"inconclusive [activator, partial curve]",
CCOc1cc(/C=N/NC(=O)c2ccc(O)cc2)ccc1Oc1nc(Cl)ncc1F,,inactive: 6.46%
O=C(CSC1=NNC(c2ccccn2)S1)Nc1ccccc1 (configuration not stated),"inconclusive [activator, partial curve, poor fit]",
c1ccc(CNc2ccc3c(c2)ncn3C2CCCCC2)nc1,active: 20.6 µM,
Oc1ccc(Br)cc1-c1n[nH]c(=S)n1Cc1ccccc1,,inactive: 8.61%
Cc1ccc(-c2cc3nc(-c4ccccc4)cc(N)n3n2)cc1,,inactive: 0.39%
O=C(NCC(c1cccnc1)N1CCN(c2ccc(F)cc2)CC1)c1ccccc1 (configuration not stated),,inactive: 2.58%
CCOC(=O)Cn1c(CN2CCc3ccccc3C2)nc2c1c(=O)n(C)c(=O)n2C,,inactive: -1.78%
Cc1ccc(NC(=O)CN(C)C(=O)COc2ccccc2-c2ccccc2)cc1,"inconclusive [activator, single point]",
O=C(COC(=O)C12CC3CC(CC(O)(C3)C1)C2)NCCc1ccc(Cl)cc1,"inconclusive [activator, partial curve, poor fit]",
NC(=NC(=O)c1ccc(OCC(F)(F)F)nc1)c1ccccc1,"inconclusive [activator, single point]",
CCOc1cc2[nH]c(=O)n(CCC(=O)NCCc3ccc(OC)c(OC)c3)c(=O)c2cc1OCC,,inactive: -2.85%
O=[N+]([O-])c1cc(CN2CCCC2)ccc1Sc1ccc(Cl)cc1,active: 10.3 µM,
